Data: patent publication US20230121313A1 (priority 2019, published 2023)

System: subjects with MDD at imminent risk for suicide
Settings: in vivo; ESKETINSUI2001; 84 mg; double-blind phase

CN[C@]1(c2ccccc2Cl)CCCCC1=O [esketamine, (S)-2-(2-chlorophenyl)-2-(methylamino)cyclohexanone]
Subjects with a serious treatment-emergent adverse event: Four
